According to the supplement of paper PMC11417369:
Some of the results follow.

system: PfHDP1 homeodomain (GST-tagged); test: gcPBM binding intensity (ln(normalized median fluorescence intensity)); higher = stronger DNA binding
Method in brief: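 The binding buffer was 1× PBS containing 1% milk, 0.2 mg/ml BSA, 0.5% salmon testes DNA and 0.03% Triton X-100. In it, GST-tagged P. falciparum DNA-binding domains expressed in E. coli were applied for 1 h to an Agilent 4 × 180k array of primer-extended double-stranded 36-bp intergenic genomic probes plus negative controls. Binding intensity, read with Alexa488 anti-GST antibody and a 488 nm scan, is the highest Masliner-normalised natural-log median intensity across replicate spots of either probe orientation.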

Sequence	gcPBM binding intensity (ln)
TATTAAATTATATAGACACACATTATGTATATATAT [CACACA_site345]	6.63
TACGAAAGGTAATATTGTACATTACAAAATTTTATA [XGTACX_site5512]	6.43
TATGTATAAATATTAACACACAAAAAAAAAAAAAAA [CACACA_site6938]	6.32
AATAAGCAGAAACACACACACAAAAAAAAAAAAAAA [CACACA_site719]	6.33
GTTTGATAACACCTACAAACTCTTTTTTTTTTTTTT [CACACA_negctrl_site1134]	6.19
ATATAAACAAAGCAGTGCACGTAAACAAAACATATA [CACACA_negctrl_site1076]	9.55
TCGTTATCCATCTTCACACATATATATAGTAATATA [CACACA_site5492]	7.37
TACTGTTTAAAATATACACACATAATCAAAAAAAAA [CACACA_site2510]	6.39
AAAAAAAAAATTGAAAGTACACAAATGGGGTATTAT [XGTACX_site3960]	6.6
TATATATTTACATATTGTACAATATAAAAATAATTA [XGTACX_site19]	6.29
TATATATATCTTTTGGTGCATATTTCGAATATATGT	9.67
CTATACAATAAAAATTGTACATACATATATGTTATA [XGTACX_site5309]	6.32
AATTTTTCTTTTTTTTGTACAGAATATATATTTTAT [XGTACX_site1419]	6.61
ATATTTATGTAATGTTTGATTTTTTTTTTATGTGTG [CACACA_negctrl_site1422]	6.28
ACATATACATACATATGTACATATACATAAATATAT [XGTACX_site1285]	6.73
TAAATAATCATAGTTCTACACACCTATATTGCAAAA [CACACA_site8190]	7.55
AAAAAAAAAAATTCCAGTACACACAATAATACTAAA [XGTACX_site5930]	6.39
ATATATATAATATGATGTACTATTTTGATAAAAAAT [XGTACX_site3975]	6.46
GTAAGAAACGGACACACACACATATATATATATATA [CACACA_site4593]	9.38

Sequence	gcPBM binding intensity (ln)
AATATATTGCACCATTGGACCTGAATAATTCTTCCA [CACACA_negctrl_site1071]	11.4
ACAAAGAACTATAATACACACAAGAATATATTGGAT [CACACA_site7771]	6.8
AAAAAAATCACATAATATACTTTATTTTATTTTGTA [GTGCAC_negctrl_site562]	6.12
TATATATAGAAACACACACACACATATATATATATT [CACACA_site2539]	6.95
TTATAAGATTTATGTACACACATATACACCCCTCTA [CACACA_site4562]	6.8
AATAATTAAATATATTTATAACAGGAAAATATTTAT [XGTACX_negctrl_site175]	6.59
ATAAATTATATTCAAGTGCATGTAACTTATTATTAT	7.32
ATATATATATAAATATAAATATATATATATATATAT [CACACA_negctrl_site1685]	9.18
GTTATAGAAGCATTCACACACACACCGACATACACA [CACACA_site4914]	6.85
AATATATACATATGTATGCACTTTTTAATTATTTTT	7.72
TATTATAATATATTTGTGCACATAATACCTCCGCTA [GTGCAC_site9570]	10.9
GTTATAGAAGCATTCACACACACACGGACATACACA [CACACA_site6801]	6.9
TTTTTTTATAAAAATGAACACACACCGATATATATA [CACACA_site9161]	7.14
TAGTAAGAATTACTGTGTACTAAAATATTAAAAAGT [XGTACX_site2578]	6.7
AAATAGTCTTCTCTTGCATGTAACAAATATATATAT [TGCATGCA_site428]	7.83
AATAAAAACAAACAAAAAAACAAATAAATAAATAAA [CACACA_negctrl_site483]	6.58
ATATTTTTTATAAAATGTACTTATTATTAGAATATA [XGTACX_site2460]	6.23
ACATATAAGTTATATACACACAATAATATGTAAATA [CACACA_site6766]	6.62
TACAAAATATGGTAATAAAGTAGTTACATGAATTGG [XGTACX_negctrl_site522]	6.26

Sequence	gcPBM binding intensity (ln)
ATGGAAATTTTATCATGTACATATACCGTTGAATAA [XGTACX_site5420]	6.56
AATAAAAAAATTAAAATTAAAAAATTAAAACTTAAA [CACACA_negctrl_site987]	5.6
TAACAAAATGTAAATAAACACACATATATATATATA [CACACA_site8352]	9.22
TATTATATAATTTTAACACACAAGAATATAAACTTT [CACACA_site1363]	6.28
TGAAGGAATACAGCTCGTACATGTGTAAAGAGATAA [XGTACX_site500]	6.97
TAATTTAAATGATGTAGTACATATAAATATATCTAA [XGTACX_site262]	5.93
AAAAAGAAAAAACTTACACACATATATACCCCCATG [CACACA_site4463]	7.77
AACATTCTATGTTGCACACAAAGAGAAAAATTTATT [CACACA_site3995]	9.13
ATTGATCTTTATTGTTGTACATTAAACGTTAATTTT [XGTACX_site1788]	6.44
ACTATAAATATATACACATGCGCACACACAAGTGGG [TGCATGCA_site432]	7.51
TACCTATAAAAGTACACACACACACGGATATAAATA [CACACA_site6569]	6.96
TAATTTATTGTACGTGCATGCTATTTTTTATTTTTA [TGCATGCA_site1059]	7.51
TTGTAATATATAAAAGTGCATATATGGTTCCATATA [GTGCAC_site9544]	7.68
ATATGTGAATAAAAATGTACGTGTTCTTTTTTTTTT [XGTACX_site320]	6.15
AACAAAAAAACAAACACACACACACCCATATATATA [CACACA_site3652]	7.1
TCATACATTTTCCTTGCACACATTTATAATTAATGT [CACACA_site614]	8.95
TTAAAAAATATATGCGTGCACTAATATTTCATATGC	9.22
TGAATTAACAAATAGACACACATATATATATATATA [CACACA_site3195]	9.26
TACTATTTTTATAATACACACATATATTTGTGATAT [CACACA_site1775]	7
